Measured values taken from publication PMC12044017, “CDK4/6-mediated phosphorylation of DUB3 promotes YAP1 stability and hepatocellular carcinoma progression” (Cell Death Discovery, 2025).
No constants are given. Whether binding was seen depends on the method and setting. For part of these data: Binding seen in cells or lysates may run through a third protein. Some entries that bind do so weakly or less than the wild type. For part of these data: Sequences can lack the tags named with a protein. Values belong to the molecule of their own block, whether it stands above or below them.

Chains of the proteins cited; added tags and fusions are not shown.
UniProt Q00534: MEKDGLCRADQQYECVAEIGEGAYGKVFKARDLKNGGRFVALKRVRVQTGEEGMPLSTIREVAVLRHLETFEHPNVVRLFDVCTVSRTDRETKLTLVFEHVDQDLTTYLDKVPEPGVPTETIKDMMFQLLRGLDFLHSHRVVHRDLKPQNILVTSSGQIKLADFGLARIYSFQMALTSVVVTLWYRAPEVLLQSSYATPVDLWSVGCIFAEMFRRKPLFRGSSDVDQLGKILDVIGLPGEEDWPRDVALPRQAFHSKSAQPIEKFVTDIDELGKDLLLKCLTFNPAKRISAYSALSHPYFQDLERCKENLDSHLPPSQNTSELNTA
UniProt P11802: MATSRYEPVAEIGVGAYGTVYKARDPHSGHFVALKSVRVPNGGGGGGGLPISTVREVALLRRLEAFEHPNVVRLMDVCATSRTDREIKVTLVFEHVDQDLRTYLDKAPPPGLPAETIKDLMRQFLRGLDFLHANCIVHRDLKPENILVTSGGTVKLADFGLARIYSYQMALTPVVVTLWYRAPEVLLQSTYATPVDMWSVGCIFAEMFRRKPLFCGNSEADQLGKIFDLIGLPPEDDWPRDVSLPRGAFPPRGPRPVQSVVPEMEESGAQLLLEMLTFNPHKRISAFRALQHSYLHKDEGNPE
UniProt P46937: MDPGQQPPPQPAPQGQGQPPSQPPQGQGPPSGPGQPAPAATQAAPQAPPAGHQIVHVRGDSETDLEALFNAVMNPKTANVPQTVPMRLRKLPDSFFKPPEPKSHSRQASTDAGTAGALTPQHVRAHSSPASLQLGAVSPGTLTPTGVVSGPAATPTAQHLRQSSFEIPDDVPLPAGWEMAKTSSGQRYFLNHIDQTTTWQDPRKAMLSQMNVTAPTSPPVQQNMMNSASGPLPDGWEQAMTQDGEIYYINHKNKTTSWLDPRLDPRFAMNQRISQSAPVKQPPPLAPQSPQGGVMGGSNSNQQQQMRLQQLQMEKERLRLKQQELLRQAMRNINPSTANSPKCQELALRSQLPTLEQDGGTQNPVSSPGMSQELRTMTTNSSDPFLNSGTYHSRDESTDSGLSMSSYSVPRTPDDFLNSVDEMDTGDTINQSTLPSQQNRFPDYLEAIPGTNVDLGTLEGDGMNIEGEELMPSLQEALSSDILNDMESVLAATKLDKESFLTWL

Assays:
GST-CDK6 = GST-CDK6 (UniProt Q00534); experiment: pull-down; GST-fusion protein on Pierce Glutathione agarose mixed with purified His-tagged protein at 4 °C for 2 hours; beads washed four times; western blot; both purified
GST-CDK4 = GST-CDK4 (UniProt P11802); experiment: as above
GST-YAP1 = GST-YAP1 (UniProt P46937); experiment: as above
[1] = target: CDK6 (endogenous) (human (endogenous in HCCLM3)) (UniProt Q00534); experiment: co-IP; endogenous proteins; HCCLM3 or HepG2 cells lysed in NETN buffer, 4 hours with primary antibodies and protein A/G beads at 4 °C; beads washed four times; western blot
[2] = target: CDK4 (endogenous) (human (endogenous in HCCLM3)) (UniProt P11802); experiment: as above
[3] = target: YAP1 (endogenous) (human (endogenous in HCCLM3 and HepG2)) (UniProt P46937); experiment: as above

- binding (GST-CDK6): no binding
- binding (GST-CDK4): no binding
Molecule: His-YAP1 (from UniProt P46937 1-504)

- binding (GST-YAP1): binds
B1: His-DUB3 (enzyme, UniProt Q6R6M4 1-530)
chain: MEDDSLYLGGEWQFNHFSKLTSSRPDAAFAEIQRTSLPEKSPLSSEARVDLCDDLAPVARQLAPRKKLPLSSRRPAAVGAGLQNMGNTCYENASLQCLTYTPPLANYMLSREHSQTCQRPKCCMLCTMQAHITWALHSPGHVIQPSQALAAGFHRGKQEDAHEFLMFTVDAMKKACLPGHKQVDHHSKDTTLIHQIFGGCWRSQIKCLHCHGISDTFDPYLDIALDIQAAQSVKQALEQLVKPEELNGENAYHCGLCLQRAPASKTLTLHTSAKVLILVLKRFSDVTGNKLAKNVQYPECLDMQPYMSQQNTGPLVYVLYAVLVHAGWSCHDGHYFSYVKAQEGQWYKMDDAKVTACSITSVLSQQAYVLFYIQKSEWERHSESVSRGREPRALGAEDTDRRATQGELKRDHPCLQAPELDERLVERATQESTLDHWKFPQEQNKTKPEFNVRKVEGTLPPNVLVIHQSKYKCGMKNHHPEQQSSLLNLSSTTRTDQESVNTGTLASLQGRTRRSKGKNKHSKRALLVCQ

- binding [1]: binds
- binding [2]: binds
- binding [3]: binds
B2: DUB3 (endogenous) (enzyme, UniProt Q6R6M4 1-530)
chain: MEDDSLYLGGEWQFNHFSKLTSSRPDAAFAEIQRTSLPEKSPLSSEARVDLCDDLAPVARQLAPRKKLPLSSRRPAAVGAGLQNMGNTCYENASLQCLTYTPPLANYMLSREHSQTCQRPKCCMLCTMQAHITWALHSPGHVIQPSQALAAGFHRGKQEDAHEFLMFTVDAMKKACLPGHKQVDHHSKDTTLIHQIFGGCWRSQIKCLHCHGISDTFDPYLDIALDIQAAQSVKQALEQLVKPEELNGENAYHCGLCLQRAPASKTLTLHTSAKVLILVLKRFSDVTGNKLAKNVQYPECLDMQPYMSQQNTGPLVYVLYAVLVHAGWSCHDGHYFSYVKAQEGQWYKMDDAKVTACSITSVLSQQAYVLFYIQKSEWERHSESVSRGREPRALGAEDTDRRATQGELKRDHPCLQAPELDERLVERATQESTLDHWKFPQEQNKTKPEFNVRKVEGTLPPNVLVIHQSKYKCGMKNHHPEQQSSLLNLSSTTRTDQESVNTGTLASLQGRTRRSKGKNKHSKRALLVCQ
